The other results are listed elsewhere or left out.

The test has as its system T1, Caupolican (Caup) homeodomain DNA-binding domain.
T1 sequence: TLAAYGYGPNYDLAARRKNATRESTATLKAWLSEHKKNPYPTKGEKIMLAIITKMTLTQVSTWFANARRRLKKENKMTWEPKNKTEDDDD
In words: PBM E-score (8-mer, recovered from the published 9-mer minima) (E-score (dimensionless, -0.5 to 0.5)); Drosophila protein; higher = stronger relative binding preference, active = 0.31 or more. The method, boiled down: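 Caup's homeodomain DNA-binding domain (residues 214-303) was produced by in vitro transcription and translation and applied at 100 nM to custom-designed protein binding microarrays. Each value is an enrichment score giving relative binding preference for a short DNA word; higher means stronger. Published 9-mer scores were the minimum of their two constituent 8-mer scores, and the 8-mer values were recovered from those minima. A cutoff of 0.31 marks candidate binding sequences.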
On to TCAATGAA, for which the “PBM E-score” value was inactive: 0.14. Next, ACCTGCCG: inactive: -0.192; ACCTTCTC: inactive: -0.0692; ACTTGGAC: inactive: 0.00249. In the case of GGGGGGAC, the “PBM E-score” value was inactive: -0.363. The same measure for CCGCTGAG: inactive: -0.137; for AAAAAATC: inactive: 0.0484. For the sequence CAGTGATG, the “PBM E-score” value is inactive: 0.123. For CGGATACG, the “PBM E-score” value was inactive: -0.0508.

As to ATCTACGG, the “PBM E-score” value was inactive: 0.00867.

With CAGTCGGC, the “PBM E-score” value is inactive: -0.272. Regarding ACAAAGAG, the “PBM E-score” value is inactive: 0.0261. Next, GTCAGGCA: inactive: -0.0537.

Turning to ATTTCATA, the “PBM E-score” value is inactive: 0.137. On to ACTACATG, for which the “PBM E-score” value is active: 0.428. Consider GTACTTGA, for which the “PBM E-score” value is inactive: 0.186. The same measure for CCTCGTAG: inactive: 0.0125. For the sequence CGCGGCAA, the “PBM E-score” value was inactive: -0.137. The same measure for AGCTATCG: inactive: 0.00182; for CTTAACGA: inactive: 0.00561.

In the case of CGTGTTGA, the “PBM E-score” value was inactive: 0.244.

Turning to CGTTGCTA, the “PBM E-score” value was inactive: 0.116.

Consider AGTTCGTG, for which the “PBM E-score” value was inactive: 0.147. For the sequence CCAGCCAA, the “PBM E-score” value is inactive: -0.116.

Take AGCTCACT: the “PBM E-score” value is inactive: -0.123.

Turning to ATAGAGCG, the “PBM E-score” value is inactive: -0.104. Next, CTTGAGTC: inactive: -0.0884; ATGGTGCA: inactive: 0.0629.

For the sequence ACTGTCAA, the “PBM E-score” value is inactive: 0.0966. Take CTTACATC: the “PBM E-score” value is inactive: 0.296.

As to GAGACGGA, the “PBM E-score” value is inactive: -0.0598. In the case of TACCGTGA, the “PBM E-score” value is inactive: -0.0129. Turning to AATTGCCC, the “PBM E-score” value is inactive: -0.0635. Next, CTGACTTA: inactive: 0.00809; ACTTCTCT: inactive: -0.00065; AGCAGGCT: inactive: -0.126.

Consider ATCGCCCG, for which the “PBM E-score” value was inactive: -0.131. On to ACCGGTCA, for which the “PBM E-score” value is inactive: -0.0647. The same measure for CCAGAACG: inactive: -0.0547; for GAGTCCAA: inactive: -0.00772; for GTACGCAC: inactive: 0.0295. As to ATCACTAG, the “PBM E-score” value was inactive: 0.138. For GGTACACC, the “PBM E-score” value was inactive: 0.143.

Take AATAGAAT: the “PBM E-score” value was inactive: 0.132.

As for CACTGGTA, the “PBM E-score” value was inactive: 0.149. The same measure for CCATCGTC: inactive: -0.119.

Consider GTCAACAC, for which the “PBM E-score” value is inactive: 0.175. Next, ACGGCTCG: inactive: -0.148; CAGAAAAC: inactive: 0.0568. As for CTAGTCCC, the “PBM E-score” value was inactive: -0.0687. With AATGTACT, the “PBM E-score” value was inactive: 0.269. On to TGACGGCA, for which the “PBM E-score” value is inactive: -0.122. Take CAACAGAC: the “PBM E-score” value was inactive: 0.142. On to CACCGGTA, for which the “PBM E-score” value is inactive: 0.0264. For the sequence TATTCGAA, the “PBM E-score” value was inactive: 0.0204. Turning to CAGCTGTA, the “PBM E-score” value was inactive: 0.0564. Consider AGCGAAGG, for which the “PBM E-score” value was inactive: -0.14. For the sequence CCGTTATC, the “PBM E-score” value was inactive: -0.0408. In the case of CTCCCTAA, the “PBM E-score” value is inactive: -0.079.

As for AATGCTCA, the “PBM E-score” value is inactive: 0.0749. Turning to AGATTATC, the “PBM E-score” value is inactive: 0.0145. Take AGTCCACG: the “PBM E-score” value was inactive: -0.102. The same measure for ATTACCGA: inactive: 0.0892; for CACATTCG: inactive: 0.0989. The same measure for ATCGGTGA: inactive: 0.0977; for AACGACAA: inactive: 0.241. For the sequence AAATGATG, the “PBM E-score” value was inactive: 0.18.

For CCCTAGCG, the “PBM E-score” value is inactive: -0.171. With ACAATCAA, the “PBM E-score” value is inactive: 0.184.

As to GACGGAGC, the “PBM E-score” value was inactive: -0.239.

Consider GGGTGTTA, for which the “PBM E-score” value is inactive: 0.19. Turning to AGACGCTG, the “PBM E-score” value was inactive: -0.0979.

For the sequence GCCGTCCA, the “PBM E-score” value is inactive: -0.108. Next, CATCGCAG: inactive: 0.0051; ATAGATTA: inactive: 0.217.

As for GCCCGAAA, the “PBM E-score” value was inactive: -0.09. Next, CCGCTTTA: inactive: -0.0283.

For ACTGATCA, the “PBM E-score” value was at least 0.114. Next, AATTGCTC: inactive: 0.011; CGCGAACA: inactive: 0.0855.

As to CTTTCCGA, the “PBM E-score” value was inactive: -0.0959. Next, ATGACCGC: inactive: -0.0843. For the sequence ACAACGTC, the “PBM E-score” value was inactive: 0.157. Consider AGGTATGA, for which the “PBM E-score” value was inactive: 0.0886. With ATGCAACG, the “PBM E-score” value is inactive: 0.087.

In the case of ATGATAAC, the “PBM E-score” value is inactive: 0.23. GGCTTCCA: the “PBM E-score” value is inactive: -0.242. For GATGAGCC, the “PBM E-score” value was inactive: -0.11. As for GACGGTAC, the “PBM E-score” value is inactive: 0.0109.

For the sequence CAGATCTA, the “PBM E-score” value was inactive: 0.0757. Turning to CACCATGA, the “PBM E-score” value is inactive: -0.0553.

ATCACATA: the “PBM E-score” value is inactive: 0.239. With CGCCCCTC, the “PBM E-score” value is inactive: -0.284. With CACGGGTC, the “PBM E-score” value is inactive: -0.0566. The same measure for GGATTCCA: at least 0.0733; for CGCTAAGA: inactive: -0.0807. Consider ATGCATAG, for which the “PBM E-score” value was inactive: 0.0469. Next, CAGCTATA: inactive: 0.0751; CCGTGTAG: inactive: 0.286. GCGTAAGC: the “PBM E-score” value is inactive: -0.197. With CGCGTGCA, the “PBM E-score” value was inactive: -0.00474. Consider CGAATCAA, for which the “PBM E-score” value is inactive: 0.0839. As to CAACCATA, the “PBM E-score” value was inactive: 0.0225. Regarding CTCAGTCC, the “PBM E-score” value is inactive: -0.0716. On to ATGCTGCC, for which the “PBM E-score” value was inactive: -0.0457. As for CCGAGAAA, the “PBM E-score” value is inactive: -0.0532.

Consider GAATTCCC, for which the “PBM E-score” value was inactive: -0.0135. The same measure for ATACTAAG: inactive: 0.0892. Regarding CCTTGCCA, the “PBM E-score” value is inactive: -0.0896. Next, AGCTCTAC: inactive: -0.0321. As for CTGTAGTC, the “PBM E-score” value is inactive: 0.0608.

For the origin of these results see the supplement of paper PMC3724861.
